# From PMC4336329 (PLoS ONE, 2015)
# About 2,200 (0.71%) of roughly 310,000 compounds showed an effect of 50% or more. Effects have a minus sign here. The list shows a part of the results.
# Molecular target: human ether-à-go-go-related gene (hERG) potassium channel (human, UniProt Q12809)
# Test: primary screen, population patch clamp on CHO cells stably expressing hERG
# human ether-à-go-go-related gene (hERG) potassium channel, sequence (Q12809 whole entry, looked up): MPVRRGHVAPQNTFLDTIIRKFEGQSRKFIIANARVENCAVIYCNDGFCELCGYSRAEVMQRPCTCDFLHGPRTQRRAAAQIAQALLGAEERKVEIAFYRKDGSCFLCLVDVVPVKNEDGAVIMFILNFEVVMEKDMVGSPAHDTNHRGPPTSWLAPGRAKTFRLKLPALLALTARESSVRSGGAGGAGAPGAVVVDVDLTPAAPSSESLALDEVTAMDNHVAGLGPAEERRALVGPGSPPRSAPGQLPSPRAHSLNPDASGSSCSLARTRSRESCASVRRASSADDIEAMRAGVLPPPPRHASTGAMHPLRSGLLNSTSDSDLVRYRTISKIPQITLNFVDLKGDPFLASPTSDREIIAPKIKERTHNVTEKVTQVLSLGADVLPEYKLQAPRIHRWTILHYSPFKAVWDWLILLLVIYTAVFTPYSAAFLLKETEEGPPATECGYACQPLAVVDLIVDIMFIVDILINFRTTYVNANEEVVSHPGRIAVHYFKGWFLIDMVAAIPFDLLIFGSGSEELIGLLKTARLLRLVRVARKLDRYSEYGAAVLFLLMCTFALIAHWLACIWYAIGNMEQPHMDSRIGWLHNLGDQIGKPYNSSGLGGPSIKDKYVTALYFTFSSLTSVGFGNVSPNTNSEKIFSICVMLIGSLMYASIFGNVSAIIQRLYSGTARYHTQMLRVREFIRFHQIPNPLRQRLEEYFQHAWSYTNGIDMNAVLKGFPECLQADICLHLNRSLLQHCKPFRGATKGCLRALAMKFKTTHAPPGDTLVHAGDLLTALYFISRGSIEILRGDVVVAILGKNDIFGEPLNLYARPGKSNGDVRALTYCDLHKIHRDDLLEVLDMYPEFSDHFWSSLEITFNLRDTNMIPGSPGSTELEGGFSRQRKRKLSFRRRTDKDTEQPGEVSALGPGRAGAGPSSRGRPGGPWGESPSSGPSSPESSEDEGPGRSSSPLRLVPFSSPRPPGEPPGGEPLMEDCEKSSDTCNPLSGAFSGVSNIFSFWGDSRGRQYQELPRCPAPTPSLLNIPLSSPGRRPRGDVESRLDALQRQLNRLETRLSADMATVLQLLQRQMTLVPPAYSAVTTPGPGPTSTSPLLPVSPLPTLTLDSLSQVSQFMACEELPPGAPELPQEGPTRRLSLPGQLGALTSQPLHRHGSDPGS
row,Compound,"hERG current change (%, negative = inhibition) at 1uM"
1,COc1ccccc1P(=O)(c1ccccc1)c1ccccc1,16.5%
2,CC1(C)[C@H]2CC=C(CN3CCC(N4CCC(C(=O)N5CCCC5)CC4)CC3)[C@@H]1C2,1.61%
3,O=C(NCCCN1CCOCC1)C1Cc2c(ccc3ccccc23)O1 (centres unmarked),10.2%
4,COc1cc(Cl)c(CN2CCCC(CO)(Cc3cccc(Cl)c3)C2)cc1OC (centres unmarked),13.8%
5,Cc1nc2c([N+](=O)[O-])c(C)c(C)cc2[nH]1,7.78%
6,COc1cc(CNCc2ccc3c(c2)OCO3)c([N+](=O)[O-])cc1OC,11.7%
7,Cc1[nH]c2ccccc2c1C(=O)C(=O)NCC1CCCO1 (centres unmarked),9.3%
8,CN(CC(=O)NCc1ccc(F)cc1)S(=O)(=O)c1cccc2nsnc12,-7.83%
9,CCOC(=O)c1c(C)[nH]c(C=C2C(=O)CCCC2=O)c1O,3.9%
10,COc1ccc(NC(=O)CSc2nnnn2-c2ccccc2OC)c(OC)c1,0.645%
11,CCOC(=O)N1CCN(C(=O)c2cnn3ccccc23)CC1,8.16%
12,COc1ccccc1NS(=O)(=O)c1ccc2oc(=S)[nH]c2c1,-3.61%
13,CC(C)c1ccc(-c2cc(C(=O)N3CCOCC3)c3cc(Br)ccc3n2)cc1,1.41%
14,CC(C)OC(=O)CSc1nnc(-c2cnccn2)n1-c1ccccc1,13.9%
15,COc1ccc(N=N/C(C(C)=O)=C(/C)O)cc1,9.11%
16,CC(C)[C@H](NC(=O)[C@@H]1Cc2ccccc2CN1)C(=O)Nc1ccc2c(c1)OCO2,7.24%
17,CN(CC(=O)Nc1ccc(N2CCOCC2)cc1)C(=O)C1CCCC1,19.2%
18,CCCOc1cccc(-c2cc(C(=O)NNC(=S)NCC)c3ccccc3n2)c1,4.3%
19,O=C1NC(=O)N(CCC2=CCCCC2)C(=O)/C1=C\c1cccs1,10.3%
20,Cc1c(C(=O)NN)nc2ccccn12,5.61%
21,Cl.O=C1CN=C(Nc2ccccc2)N1Cc1cccs1,7.82%
22,Cc1ccc(OCCOCCN2CCN(C)CC2)c([N+](=O)[O-])c1,1.29%

row,Compound,"hERG current change (%, negative = inhibition) at 1uM"
1,Cc1cc(NC(=O)CSc2nc3c([nH]c4ccccc43)c(=O)n2-c2ccccc2F)no1,11.7%
2,Cc1cc(C)n2nc(C(=O)N/N=C/c3cccs3)nc2n1,8.38%
3,CCC1CCCCN1C(=O)Cn1c(C(=O)OC)cc2sc(Cl)cc21 (centres unmarked),12%
4,Cc1ccccc1CN(C)CC(=O)Nc1ccccc1-c1ccccc1,-9.53%
5,O=C(CN1C(=O)NC2(CCCc3ccccc32)C1=O)NCC(F)(F)F (centres unmarked),15.5%
6,O=C(Nc1cc(Cl)ccc1Cl)C1CCCO1 (centres unmarked),9.74%
7,CC1Cc2nc(SCC(=O)Nc3nccs3)n(C)c(=O)c2S1 (centres unmarked),10.5%
8,COC(=O)c1ccc(N2NC(=O)/C(=C/c3cc(OC)c(O)c(OC)c3)C2=O)cc1,5.64%
9,Cc1onc(-c2ccccc2)c1-c1csc(N/N=C/c2ccccc2Cl)n1,9.41%
10,N#Cc1ccc(C(=O)Nc2cccc(NC(=O)c3ccco3)c2)c(F)c1,3.1%
11,Cc1cc(C)c(S(=O)(=O)N2CCN(C(=O)c3cc4ccccc4oc3=O)CC2)c(C)c1,-0.0534%
12,CCCn1ncc(CN2CCC(CO)(Cc3ccc(OC)cc3)CC2)c1C,-14.7%
13,Cc1ccc(CNc2ncnc3c2cnn3-c2ccccc2)cc1,7.4%
14,Cc1cc(C)nc(NS(=O)(=O)c2ccc(Br)cc2)n1,21.2%
15,CC(C)NC(=O)CCCOc1ccc(Cl)cc1Cl,-1.26%
16,Cc1cccc(NC(=O)CSCC(=O)Nc2nnc(C3CC3)s2)c1,8.77%
17,Cc1c(Cl)cccc1NC(=O)N1CCN(C(=O)c2ccco2)CC1,15.5%
18,O=C(c1ccccc1)c1ccc(Sc2ccc([N+](=O)[O-])cc2)cc1,7.89%
19,CC(C)CCNc1nc(-c2ccco2)c2c(c1C#N)CCCC2,14.4%
20,Cc1ccc(S(=O)(=O)N(CC(=O)N2CCOCC2)c2ccccc2F)cc1,10.3%
21,O=C(Nc1ccc2c(c1)nc1n2CCN(Cc2ccccc2)C1)c1cccs1,-9.79%
22,O=C(c1cccc([N+](=O)[O-])c1)N1CCN(Cc2ccccc2)CC1,8.33%
